Measured values reported in publication PMC4336329 (PLoS ONE, 2015).
In all, about 310,000 compounds went through this assay and about 14,000 (4.5%) showed an effect of 50% or more. The effect is printed as a negative number. Some of the results follow.

Each compound was assayed against human ether-à-go-go-related gene (hERG) potassium channel (human, UniProt Q12809) (assay: primary screen, population patch clamp on CHO cells stably expressing hERG).
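Note: peak tail current of the secondary pulse compared with the same well before compound.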

Sequence of human ether-à-go-go-related gene (hERG) potassium channel (Q12809 whole entry, looked up): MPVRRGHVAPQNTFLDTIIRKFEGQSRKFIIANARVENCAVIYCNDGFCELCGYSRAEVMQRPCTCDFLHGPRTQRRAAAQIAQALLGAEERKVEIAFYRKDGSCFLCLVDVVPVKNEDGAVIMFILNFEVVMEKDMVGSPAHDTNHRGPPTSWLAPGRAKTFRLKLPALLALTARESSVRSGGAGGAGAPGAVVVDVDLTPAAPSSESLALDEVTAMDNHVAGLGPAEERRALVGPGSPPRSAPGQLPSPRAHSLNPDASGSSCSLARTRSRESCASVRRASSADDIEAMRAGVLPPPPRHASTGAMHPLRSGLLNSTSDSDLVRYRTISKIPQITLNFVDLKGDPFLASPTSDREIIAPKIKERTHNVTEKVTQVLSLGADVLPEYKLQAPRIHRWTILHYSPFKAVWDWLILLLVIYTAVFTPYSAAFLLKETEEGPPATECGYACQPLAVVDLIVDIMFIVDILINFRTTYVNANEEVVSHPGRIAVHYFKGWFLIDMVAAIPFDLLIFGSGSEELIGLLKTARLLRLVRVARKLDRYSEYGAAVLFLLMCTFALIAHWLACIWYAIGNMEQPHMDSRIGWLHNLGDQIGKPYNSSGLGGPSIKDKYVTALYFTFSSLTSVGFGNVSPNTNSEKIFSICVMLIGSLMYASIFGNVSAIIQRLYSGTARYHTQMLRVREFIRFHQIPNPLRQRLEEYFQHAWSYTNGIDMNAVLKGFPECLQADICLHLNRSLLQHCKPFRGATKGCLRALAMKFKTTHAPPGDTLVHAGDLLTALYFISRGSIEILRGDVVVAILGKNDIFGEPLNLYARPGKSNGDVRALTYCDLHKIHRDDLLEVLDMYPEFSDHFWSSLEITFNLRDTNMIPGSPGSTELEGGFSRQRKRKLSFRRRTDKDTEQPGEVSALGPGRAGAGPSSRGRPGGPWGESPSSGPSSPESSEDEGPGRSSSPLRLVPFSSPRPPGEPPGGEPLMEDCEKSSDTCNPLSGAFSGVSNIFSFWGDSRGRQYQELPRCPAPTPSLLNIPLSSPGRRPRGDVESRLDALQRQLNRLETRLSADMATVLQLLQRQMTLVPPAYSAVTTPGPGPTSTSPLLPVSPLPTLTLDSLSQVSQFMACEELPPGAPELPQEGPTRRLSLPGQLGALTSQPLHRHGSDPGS

Structure (SMILES) | hERG current change (%, negative = inhibition) at 10uM
Cc1ccc(S(=O)(=O)NCc2ccccc2)cc1C(=O)NC1CCC(C)CC1 (centres unmarked) | 1.37%
S=C(N/N=C/c1ccc2ncccc2c1)Nc1ccccc1 | 63.6%
O=C(/C=C/c1ccc(Cl)c([N+](=O)[O-])c1)Nc1ccc(N2CCCC2)cc1 | 3.74%
CCc1cc2c(-c3ccccc3)cc(=O)oc2cc1OC(=O)c1cccs1 | 23.3%
O=C1CCC(=O)N1CCSC(=S)N1CCSCC1 | 2.09%
CC(=O)C1=C(Nc2ccc(C)cc2)CC(C)(O)C(C(C)=O)C1c1ccco1 (centres unmarked) | 0.317%
CCCC12CN3CCN(CC(C3)/C1=N\NC(=O)c1ccccc1Cl)C2 | -9.7%
O=S(=O)(/C=C/c1ccccc1)N1CCOCC1 | 7.65%
Nc1nnc(CCCCCCCCCCc2nnc(N)s2)s1 | 15.7%
O=C(NCc1ccc(F)cc1)C1Cc2ccccc2CN1C(=O)c1ccco1 (centres unmarked) | -42.1%
Cc1nn(-c2ccc(F)cc2)c2sc(C(=O)OC3CCOC3=O)cc12 (centres unmarked) | 5.23%
NC(=S)N/N=C/c1ccc(-c2cccc([N+](=O)[O-])c2)o1 | -12.1%
CCC(C)[C@H](NC(=O)Nc1ccc2c(c1)OCCO2)C(=O)O (some centres unmarked) | -23.9%
COc1ccc(S(=O)(=O)NN(C)c2ncc(C(F)(F)F)cc2Cl)cc1 | -7.18%
CCCc1nnc(NC(=O)CN2CCN(C)CC2)s1.Cl | -1.91%
CCn1cc(C=C2C(=O)N(C)C(=O)N(C)C2=O)c2ccccc21 | 3.29%
O=C(Cn1nnc(-c2ccccc2)n1)N/N=C/c1cccc([N+](=O)[O-])c1O | 7.25%
O=C(Cc1cccs1)NCCS(=O)(=O)N1CCN(c2ccccc2F)CC1 | -31.6%
c1ccc(Nc2nc(N3CCOCC3)nc(N3CCOCC3)n2)cc1 | -7.35%
COC1c2ccccc2C(=O)N1CCc1ccc(Cl)cc1 (centres unmarked) | -26.7%
CCOC(=O)N1CCN(C(=O)CN2C(=O)COc3ccc(C(C)(C)C)cc32)CC1 | -14%
CC(C)CNC(=S)NC1CCCC1 | 6.83%
Cc1ccc(S(=O)(=O)N2CCCCC2)cc1NC(=O)C1=NN(c2ccccc2)C(=O)CC1 | -3.12%

Structure (SMILES) | hERG current change (%, negative = inhibition) at 10uM
O=C(Oc1ccccc1OC(=O)N1CCOCC1)N1CCOCC1 | 10.3%
CC1CN(C(=O)Cn2cnc3c2c(=O)n(C)c(=O)n3C)CC(C)O1 (centres unmarked) | 6.58%
Cn1cnc([N+](=O)[O-])c1Sc1nnc(-c2cccnc2)n1C | 22.5%
COc1ccc(CCN2CC34C=CC(O3)C(C(=O)NCc3ccccc3)C4C2=O)cc1OC (centres unmarked) | 13.5%
C[C@H](NC(=O)[C@@H]1Cc2ccccc2CN1C(=O)OC(C)(C)C)C(=O)NC1CCCC1 | 13.7%
CCN(Cc1ccncc1)C(=O)c1cc(COc2ccc(F)cc2F)on1 | -36%
CC(=O)N1CCN(C(=O)c2cccc(S(=O)(=O)N3CCN(c4ccc(F)cc4)CC3)c2)CC1 | -20.1%
O=C(CN1CCN(c2ncccn2)CC1)NCc1ccccc1 | 6.18%
O=C1c2ccccc2NC(c2cccc(Cl)c2)N1N=C1CCCCCC1 (centres unmarked) | -2.41%
CC1=C(C(=O)OCc2ccccc2)C(c2ccc([N+](=O)[O-])cc2)NC(=O)N1CCCCCC(=O)O (centres unmarked) | -4.88%
CCN(CC)S(=O)(=O)c1ccc(NC(=O)CCNC(=O)c2ccco2)cc1 | 11.8%
CCN(CC)C(=O)Cn1c(=O)n(C)c2ccccc21 | 3.86%
Cc1ccc(NC(=O)CS(=O)(=O)c2c[nH]c3ccccc23)c(C)c1 | 11.9%
O=C(O)c1ccc(NC(=O)C2C3CCC(C3)C2C(=O)O)cc1 (centres unmarked) | 19%
COc1ccccc1C(=O)NCc1ccccn1 | 18.4%
COc1ccc(/C=C/S(=O)(=O)NCc2ccccc2)cc1OC | -3.58%
c1ccc(CCc2nc(-c3ccc(-n4cccc4)cc3)no2)cc1 | 2.61%
O=c1c2ccccc2c(-c2ccc(Cl)cc2)nn1-c1ccccc1 | -1.46%
CC12CCCCC1N(O)C(=O)C(=O)N2O (centres unmarked) | 8.8%
COc1cc(C(=O)O/N=C2\CCCc3c2ccc(OC)c3[N+](=O)[O-])cc(OC)c1OC | 2.98%
COc1ccc(-c2nnc(SCc3nnc(-c4cccs4)o3)n2CC2CCCO2)cc1 (centres unmarked) | -32%
Cc1oc2ccc(O)cc2c1C(=O)c1ccc(Br)cc1 | 7.84%
COc1ccccc1C(=O)CN1C(=O)NC2(CCc3ccccc32)C1=O (centres unmarked) | -9.64%

Structure (SMILES) | hERG current change (%, negative = inhibition) at 10uM
O=C(COC(=O)CCN1C(=O)C2CC=CCC2C1=O)NCCc1ccccc1 (centres unmarked) | -22.4%
N#Cc1ccccc1S(=O)(=O)N1CCN(C(=O)[C@H](Cc2ccccc2)NC(=O)c2ccco2)CC1 | -19.5%
O=[N+]([O-])c1cccc(Nc2c([N+](=O)[O-])ccc3nonc23)c1 | 7.15%
COc1ccc(CN2C(=O)c3cccnc3C2=O)cc1S(=O)(=O)NC1CCCCC1 | 14.4%
CC(C)COc1ccc(C(=O)NCc2ccco2)cc1 | -4.07%
Nc1ccccc1C(=O)N1CCCC1 | 9.99%
Cc1ccc(CNC(=O)CCc2ccccc2)cc1 | 0.931%
Cc1c(CCO)c(=O)n(-c2ccccc2)n1S(=O)(=O)c1ccc(Cl)cc1 | 19.9%
CCCCNC(=O)c1onc(CSc2cccc(Cl)c2)c1C(=O)O | -44.8%
Cc1ccc(Nc2nnc(SC(C)C(=O)Nc3c(C)n(C)n(-c4ccccc4)c3=O)s2)cc1 (centres unmarked) | -3.6%
Cc1cc(NC(=O)C(C)SCC(=O)Nc2cc(Cl)ccc2N2CCN(C)CC2)no1 (centres unmarked) | -33.4%
CCOC(=O)Cc1csc(SCC(=O)NC2CCC(C)CC2)n1 (centres unmarked) | -6.84%
CC(=O)Nc1nc(=O)c2ccccc2s1 | 1.39%
CCCC(=O)NC(c1ccc(C)cc1)c1ccc2cccnc2c1O (centres unmarked) | -6.24%
Cc1ccc(-n2ncc3c2CC(C)(C)CC3NC(=O)CCn2cncn2)cc1 (centres unmarked) | -76.8%
O=C(c1ccccc1Sc1ccc([N+](=O)[O-])cc1)N1CCCCC1 | -39.5%
CCOC(=O)c1csc(NC(=O)CSc2nnc(C3CC3)n2C)n1 | 11%
COc1ccc2c(CC(=O)Nc3ccc(OC)c(S(=O)(=O)N4CCOCC4)c3)coc2c1 | -9.71%
CC(C)(C)c1ccc(-c2n[nH]c(=S)n2-c2ccccc2)cc1 | 22.8%
COc1ccc(Cl)cc1NC(=O)CC1S/C(=N/N=C2CCCCCC2)NC1=O (centres unmarked) | 4.5%
COc1cccc(NC(=O)CN(C)CC(=O)c2c(C)[nH]c3ccccc23)c1 | -11.9%
CCc1ccc(NC(=O)CSc2nnc(-c3cnccn3)n2Cc2ccco2)cc1 | -10.3%
Nc1[nH]nc2nc(-c3ccccc3)[nH]c(=O)c12 | 19.2%

Structure (SMILES) | hERG current change (%, negative = inhibition) at 10uM
C/C(=C\CCC1(C)C2CC3C(C2)C31C)C(=O)O (centres unmarked) | 9.71%
CCN(CC)c1ccc(NC(=O)CCCCC(=O)Nc2ccc(N(CC)CC)cc2)cc1 | 4.87%
COc1ccc(S(=O)(=O)n2nc(OC(=O)c3c(-c4ccccc4Cl)noc3C)cc2N)cc1 | 1.98%
CCCCCCn1cc(C(=O)O)c(=O)c2ccccc21 | -75.8%
O=C(CSCc1ccc(Cl)cc1)NCC1CCCO1 (centres unmarked) | -11.5%
CC(C)C(Nc1ncnc2c1oc1ccccc12)C(=O)O (centres unmarked) | -0.0759%
COc1ccc(C)cc1NC(=O)CN(Cc1nnc(-c2ccc(Cl)cc2)o1)C1CCCC1 | -10%
CCOC(=O)c1c(SC)[nH]c2c(Cl)cccc2c1=O | 13%
Cl.c1ccc(Nc2nc(NCc3ccco3)c3ccccc3n2)cc1 | -71%
CCOC(=O)C1CNc2cc(S(=O)(=O)CC)ccc2O1 (centres unmarked) | -5.23%
CCN(CC(=O)NCc1ccc(Cl)cc1)C(=O)CNS(=O)(=O)c1ccc(NC(C)=O)cc1 | 32%
Cc1ccc(S(=O)(=O)N(Cc2ccccc2Cl)C(=O)N2CCN(C)CC2)cc1 | 11.3%
COc1cc(C)c(Cl)cc1S(=O)(=O)NCCN1CCOCC1 | 15.9%
COC(=O)c1ccc(CNC(=O)c2ccc3c(c2)OCCO3)cc1 | 21.2%
COC(=O)c1c(NC(=O)CSc2ncnc3c2cnn3-c2ccccc2Cl)sc2c1CCCC2 | 13.5%
COc1ccc(Cl)cc1C1=CC(=O)C[C@H](c2ccc(F)cc2)C1 | -2.68%
Cc1ccc(C2CC(c3cccs3)=NN2C(=O)CCl)cc1 (centres unmarked) | -5.87%
CCOc1ccc(OCC(=O)c2c(O)c3ccccc3oc2=O)cc1 | -3.16%
COc1ccc(C)cc1S(=O)(=O)N(CC(=O)NC1CCCC1)c1ccc(F)cc1 | -21.5%
Cn1ccs/c1=N\S(=O)(=O)c1ccc(Br)cc1 | 11.9%
